{
  "source": "PubChem BioAssay AID504332",
  "about": "(National Center for Advancing Translational Sciences (NCATS), 2011)",
  "note": "Out of some 350,000 compounds screened, about 31,000 (8.9%) were called active. Inconclusive results, whose numbers are uncertain, are shown with a selection of clear calls. The call rests on the fitted dose curve; in most records, active means well fitted inhibition curve with a large enough effect; inconclusive means small, poorly fitted or top-dose-only effect; inactive means no such curve, though single readings can be large or run the other way. Potencies of inconclusive entries are doubtful fits and often do not repeat.",
  "data": [
    {"molecular_target": "Histone-lysine N-methyltransferase EHMT2 (Homo sapiens) (UniProt Q96KQ7)", "sequence (Q96KQ7 whole entry, looked up)": "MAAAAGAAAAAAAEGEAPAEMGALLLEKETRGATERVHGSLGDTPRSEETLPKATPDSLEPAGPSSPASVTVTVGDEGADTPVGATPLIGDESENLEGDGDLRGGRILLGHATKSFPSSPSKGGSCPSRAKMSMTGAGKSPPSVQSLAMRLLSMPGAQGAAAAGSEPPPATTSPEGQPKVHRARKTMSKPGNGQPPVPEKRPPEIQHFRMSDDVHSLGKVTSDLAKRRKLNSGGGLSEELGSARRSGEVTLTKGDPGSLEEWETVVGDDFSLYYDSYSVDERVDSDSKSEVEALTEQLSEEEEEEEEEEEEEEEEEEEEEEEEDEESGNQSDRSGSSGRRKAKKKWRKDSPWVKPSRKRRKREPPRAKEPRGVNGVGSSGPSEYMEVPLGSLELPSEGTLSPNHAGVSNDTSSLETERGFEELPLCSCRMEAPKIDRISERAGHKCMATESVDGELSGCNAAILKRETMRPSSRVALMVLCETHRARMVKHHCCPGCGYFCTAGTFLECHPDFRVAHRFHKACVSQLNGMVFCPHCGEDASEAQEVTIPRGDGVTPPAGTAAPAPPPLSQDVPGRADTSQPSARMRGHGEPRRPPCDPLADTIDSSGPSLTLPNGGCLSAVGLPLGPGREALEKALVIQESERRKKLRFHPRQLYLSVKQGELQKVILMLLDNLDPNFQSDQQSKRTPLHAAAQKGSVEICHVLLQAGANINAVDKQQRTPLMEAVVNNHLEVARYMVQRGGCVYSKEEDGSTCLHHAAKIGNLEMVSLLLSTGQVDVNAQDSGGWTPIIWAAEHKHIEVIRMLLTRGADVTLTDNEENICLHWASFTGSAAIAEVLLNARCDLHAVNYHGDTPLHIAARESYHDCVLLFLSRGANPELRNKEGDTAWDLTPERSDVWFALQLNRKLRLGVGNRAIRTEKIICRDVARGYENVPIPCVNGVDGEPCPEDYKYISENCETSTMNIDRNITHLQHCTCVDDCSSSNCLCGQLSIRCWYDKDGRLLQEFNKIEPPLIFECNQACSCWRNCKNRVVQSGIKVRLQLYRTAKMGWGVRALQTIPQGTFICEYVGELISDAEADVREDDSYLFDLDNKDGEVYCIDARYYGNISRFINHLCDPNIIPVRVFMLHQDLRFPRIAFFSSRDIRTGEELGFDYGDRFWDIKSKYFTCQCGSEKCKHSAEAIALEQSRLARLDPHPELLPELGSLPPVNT", "assay": "qHTS Assay for Inhibitors of Histone Lysine Methyltransferase G9a; further: nearly all actives have a fitted effect of over 75% in size; further: potency means the concentration at half of the fitted maximal effect; tags describe the fitted curve by direction and shape; on activity, negative = inhibition: on the % scale 0 is the no-effect control and ±100 the full control effect", "settings": "G9a H3K9 monomethylation, AlphaScreen, 2 h; activity, negative = inhibition: at 59 µM (top of the series) unless noted", "how_it_was_run": "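Compounds were preincubated with 20 nM G9a for 15 min, after which biotinylated H3K9 peptide (500 nM) and SAM (20 uM) started a 2 h room-temperature reaction. Monomethylated product was quantified by antibody-based AlphaScreen chemiluminescence.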", "values": [
      {"molecule": "COc1ccc(OC)c(C2c3c(-c4ccc(Br)cc4)n[nH]c3C(=O)N2c2ccc(Cl)cc2)c1", "note": "(stereo unspecified)", "Potency": "inconclusive: 20 µM [inhibitor, partial curve, poor fit]"},
      {"molecule": "CC1(C)Cc2[nH]c(=S)c(C#N)cc2CO1", "Potency": "active: 0.708 µM"},
      {"molecule": "CCOC(=O)c1c(CCl)nc2ccccc2c1C", "Potency": "inconclusive: 89.1 µM [inhibitor, single point]"},
      {"molecule": "O=C(Nc1cccc(C(F)(F)F)c1)N1CCC(CN2CCCCCC2)CC1", "Potency": "inconclusive: 31.6 µM [inhibitor, partial curve, poor fit]"},
      {"molecule": "Clc1ccc(OCCOCCOc2cccc3cccnc23)c(Br)c1", "activity, negative = inhibition": "inactive: -7.45%"},
      {"molecule": "COc1cc(-c2nc3ccccn3c2Nc2ccccc2C)ccc1O", "Potency": "inconclusive: 11.2 µM [inhibitor, partial curve, poor fit]"},
      {"molecule": "CCn1c(SCC(=O)OCC(=O)N2c3ccccc3NC(=O)C2(C)C)nnc1-c1ccco1", "Potency": "inconclusive: 3.55 µM [inhibitor, full curve, poor fit]"},
      {"molecule": "CCOC(=O)CSC1=Nc2ccccc2C2=NC(CC(=O)NCc3ccc4c(c3)OCO4)C(=O)N12", "note": "(stereo unspecified)", "Potency": "inconclusive: 79.4 µM [inhibitor, single point]"},
      {"molecule": "COc1ccc([N+](=O)[O-])cc1NC(=O)C(C)OC(=O)/C=C/c1ccco1", "note": "(stereo unspecified)", "Potency": "inconclusive: 39.8 µM [inhibitor, single point]"},
      {"molecule": "COc1ccc(Nc2cc(C(=O)NCCCN(C)Cc3ccccc3)c3ccccc3n2)c(OC)c1", "Potency": "inconclusive: 12.6 µM [inhibitor, partial curve, poor fit]"},
      {"molecule": "Cc1ccc(-n2ncc(Br)c(Br)c2=O)cc1", "activity, negative = inhibition": "inactive: -16.8% [at 102 µM]"},
      {"molecule": "O=C(CCCOc1ccccc1)Nc1nncs1", "Potency": "inconclusive: 79.4 µM [inhibitor, partial curve, poor fit]"},
      {"molecule": "COCCn1c(=O)c(-c2ccccc2)nc2cnc(N(C)C)nc21", "activity, negative = inhibition": "inactive: 3.18% [at 0.501 µM]"},
      {"molecule": "Cc1ccc(C)c(-c2cc(C(=O)Nc3cccnc3)c3ccccc3n2)c1", "Potency": "inconclusive: 3.55 µM [inhibitor, partial curve, poor fit]"},
      {"molecule": "O=C(N/N=C/c1cccc(O)c1)c1ccc2c(c1)OCCO2", "activity, negative = inhibition": "inactive: 17% [at 102 µM]"},
      {"molecule": "CC1CCN(c2cc3c(cc2F)c(=O)c(S(=O)(=O)c2cccc(Cl)c2)cn3Cc2ccccc2)CC1", "activity, negative = inhibition": "inactive: 0.482%"},
      {"molecule": "CCc1ccc(NC(=O)C(C)Nc2ccc(S(=O)(=O)NC(C)=O)cc2)cc1", "note": "(stereo unspecified)", "Potency": "inconclusive: 4.47 µM [inhibitor, partial curve, poor fit]"},
      {"molecule": "CCc1nnc(NC(=O)CSc2nnc(COc3cccc(C)c3)o2)s1", "Potency": "inconclusive: 31.6 µM [inhibitor, partial curve]"},
      {"molecule": "O=C(NC12CC3CC(CC(C3)C1)C2)c1ccc(-c2cccc(Cl)c2)o1", "Potency": "inconclusive: 25.1 µM [inhibitor, single point]"},
      {"molecule": "CCCSc1nc2c3c(sc2c(=O)[nH]1)CC(C)(CC)OC3", "note": "(stereo unspecified)", "Potency": "inconclusive: 50.1 µM [inhibitor, partial curve, poor fit]"},
      {"molecule": "Cc1[nH]c2ccccc2c1C(c1ccccn1)N1CCC(C)CC1", "note": "(stereo unspecified)", "activity, negative = inhibition": "inconclusive: -69.8% [inhibitor]"},
      {"molecule": "CC(NC(=O)c1ccccc1F)c1nnc(SCC(=O)NC2=NCCS2)n1C", "note": "(stereo unspecified)", "Potency": "inconclusive: 79.4 µM [inhibitor, single point]"},
      {"molecule": "COc1cc2cc(C(c3nnnn3C3CCCC3)N3CCCCC3)c(=O)[nH]c2cc1OC", "note": "(stereo unspecified)", "activity, negative = inhibition": "inactive: -47.5% [at 12.7 µM]"},
      {"molecule": "Cc1ccc(-c2nnn(CC(=O)N3CCCCC3)n2)cc1", "activity, negative = inhibition": "inactive: 19.8% [at 0.501 µM]"},
      {"molecule": "O=C1NCCCC2c3c(cc(Br)c(O)c3Br)OC12N1CCOCC1", "note": "(stereo unspecified)", "Potency": "inconclusive: 12.6 µM [inhibitor, single point]"},
      {"molecule": "CC(=O)NC(c1ccccc1)c1cc([N+](=O)[O-])c2cccnc2c1O", "note": "(stereo unspecified)", "Potency": "active: 10 µM"},
      {"molecule": "O=C(N/C=C/c1ccco1)NCc1ccccc1", "Potency": "active: 25.1 µM"},
      {"molecule": "Cc1ccc(C)c(NC(=S)Nc2cccc3cnccc23)c1", "Potency": "active: 22.4 µM"},
      {"molecule": "CN=c1scc(C)n1/N=C/c1ccc(O)cc1", "activity, negative = inhibition": "inconclusive: -58.8% [inhibitor]"},
      {"molecule": "CC1=C(C(=O)OC(C)C)C(c2cncc(-c3ccc(F)cc3)c2)C(C#N)=C(N)O1", "note": "(stereo unspecified)", "Potency": "inconclusive: 39.8 µM [inhibitor, single point]"},
      {"molecule": "CCN(CC)CCN(C(=O)c1ccc2ccccc2c1)c1nc2ccc(OC)cc2s1", "Potency": "active: 79.4 µM"},
      {"molecule": "O=C(Cc1ccc(NC(=O)N2CCCCc3ccccc32)cc1)NCc1ccccc1Br", "activity, negative = inhibition": "inactive: -2.48%"},
      {"molecule": "O=c1[nH]c2cc3c(cc2cc1C(c1nnnn1Cc1ccccc1)N1CCN2CCCC2C1)OCCO3", "note": "(stereo unspecified)", "activity, negative = inhibition": "inconclusive: -100% [inhibitor]"},
      {"molecule": "Cc1n[nH]c(C)c1CCNC(=O)C1CCC(=O)N(CCc2cccc(F)c2)C1", "note": "(stereo unspecified)", "activity, negative = inhibition": "inactive: 11.1% [at 0.501 µM]"},
      {"molecule": "NS(=O)(=O)c1ccc(CCNC(=O)CCCCCNc2nc(=S)[nH]c3ccccc23)cc1", "Potency": "active: 50.1 µM"},
      {"molecule": "CCOc1ccc(C(CC(=O)O)n2cnnn2)cc1OC", "note": "(stereo unspecified)", "Potency": "inconclusive: 50.1 µM [inhibitor, partial curve, poor fit]"},
      {"molecule": "Cc1c(Cl)cccc1NC(=O)CSc1sc2c(O)cc(=O)[nH]c2c1C#N", "Potency": "inconclusive: 39.8 µM [inhibitor, single point]"},
      {"molecule": "O=C(COc1ccccc1)Nc1nn[nH]n1", "activity, negative = inhibition": "inconclusive: -71.4% [inhibitor]"},
      {"molecule": "Cc1ccc(NCC(=O)N/N=C/c2c[nH]c3ccccc23)cc1", "Potency": "inconclusive: 50.1 µM [inhibitor, partial curve, poor fit]"},
      {"molecule": "Cc1ccc(-n2c(SCC(=O)Nc3ccc4c(c3)OCO4)nnc2-c2cccs2)cc1", "Potency": "inconclusive: 3.55 µM [inhibitor, partial curve, poor fit]"},
      {"molecule": "O=C1CN(C(=O)CSc2nnc(Nc3ccccc3)s2)c2ccccc2N1", "Potency": "inconclusive: 15.8 µM [inhibitor, single point]"},
      {"molecule": "COc1ccc(Nc2c3c(nc4ccccc24)CCCC3)cc1OC", "activity, negative = inhibition": "inactive: -8.69%"},
      {"molecule": "CCOC(=O)c1cc(CC)sc1N1C(=O)CC(Sc2ncccc2C(=O)O)C1=O", "note": "(stereo unspecified)", "Potency": "active: 25.1 µM"},
      {"molecule": "O=C(Nc1ccc(N2CCOCC2)c(Cl)c1)c1ccc2c(c1)OCCO2", "Potency": "inconclusive: 44.7 µM [inhibitor, partial curve, poor fit]"},
      {"molecule": "OCCOc1ccc(C2=NCCO2)cc1", "activity, negative = inhibition": "inactive: 7.77% [at 12.7 µM]"},
      {"molecule": "Cc1ccc(NC(=O)CN(C)S(=O)(=O)c2ccc3c(c2)n(C)c(=O)c(=O)n3C)c(C)c1", "Potency": "inactive"},
      {"molecule": "Cc1c(NC(=O)CN2CCN(c3ccc(O)cc3)CC2)c(=O)n(-c2ccccc2)n1C", "Potency": "active: 6.31 µM"},
      {"molecule": "S=C(c1c[nH]c2ccc(Br)cc12)N1CCOCC1", "Potency": "inconclusive: 44.7 µM [inhibitor, partial curve]"},
      {"molecule": "Nc1ccc(N)c(C(=O)O)c1", "Potency": "active: 7.94 µM"},
      {"molecule": "Cc1cccc(NC(=O)c2ccc([N+](=O)[O-])o2)n1", "Potency": "inconclusive: 79.4 µM [inhibitor, partial curve, poor fit]"},
      {"molecule": "Cc1cc([N+](=O)[O-])nn1CC(=O)NNC(=S)Nc1ccc(Cl)cc1", "activity, negative = inhibition": "inconclusive: -73% [inhibitor]"},
      {"molecule": "COc1ccccc1C(O)(c1ccccc1)C(CN1CCOCC1)c1ccccc1", "note": "(stereo unspecified)", "Potency": "inconclusive: 70.8 µM [inhibitor, single point]"},
      {"molecule": "Nc1ccc2nc(C(F)(F)F)[nH]c2c1", "Potency": "active: 44.7 µM"},
      {"molecule": "COc1ccc(C(=O)NC(=S)N2CCCCC2)cc1", "Potency": "inconclusive: 22.4 µM [inhibitor, partial curve, poor fit]"},
      {"molecule": "CC(=O)/C(N=Nc1ccc(C(=O)O)cc1)=C(\\C)O", "activity, negative = inhibition": "inactive: -20.6% [at 102 µM]"},
      {"molecule": "N#Cc1ccc(OC(=O)c2cc(-c3ccc(Cl)cc3)on2)cc1", "activity, negative = inhibition": "inactive: -31.1%"},
      {"molecule": "CC(Nc1cc(N2CCCC2)ccc1[N+](=O)[O-])c1ccccc1", "note": "(stereo unspecified)", "activity, negative = inhibition": "inconclusive: -82% [inhibitor]"},
      {"molecule": "COc1ccc(C(=O)C2CC2c2ccc3c(c2)OCO3)cc1", "note": "(stereo unspecified)", "activity, negative = inhibition": "inactive: 54.7% [at 102 µM]"},
      {"molecule": "Cc1cccc(NC(=O)CCCn2cc([N+](=O)[O-])cn2)n1", "activity, negative = inhibition": "inactive: 8.58% [at 102 µM]"},
      {"molecule": "CN(C)c1ccc(C(=O)Nc2cccc(S(=O)(=O)N3CCCC3)c2)cc1", "Potency": "inconclusive: 31.6 µM [inhibitor, single point]"},
      {"molecule": "COCCn1c(=O)c(C)nc2cncnc21", "activity, negative = inhibition": "inactive: 4.96% [at 0.501 µM]"},
      {"molecule": "C=CCOc1ccc(Cl)cc1CNC1CCCC1", "Potency": "inconclusive: 70.8 µM [inhibitor, partial curve, poor fit]"},
      {"molecule": "O=C(CN1CCC(O)(c2ccc3c(c2)OCO3)CC1)NC1CCCCC1", "Potency": "inconclusive: 89.1 µM [inhibitor, single point]"},
      {"molecule": "CCCCCN(C(=O)CCC(=O)OCC(=O)c1ccc(CCC)cc1)c1c(N)n(CCCC)c(=O)[nH]c1=O", "activity, negative = inhibition": "inactive: 2.65%"},
      {"molecule": "CCOc1ccc(NC(=O)COC(=O)c2cc([N+](=O)[O-])ccc2N2CCOCC2)cc1", "Potency": "inconclusive: 12.6 µM [inhibitor, partial curve]"},
      {"molecule": "COc1cccc(OC)c1C(=O)NC(C)c1ccccc1", "note": "(stereo unspecified)", "activity, negative = inhibition": "inactive: -1.9%"},
      {"molecule": "CCOC(=O)NC(Nc1cc(C)ccn1)(C(F)(F)F)C(F)(F)F", "Potency": "inconclusive: 89.1 µM [inhibitor, single point]"},
      {"molecule": "CCOc1ccc(CC(=O)C2=C(N3CCOCC3)CC(C)(C)CC2=O)cc1OCC", "Potency": "active: 25.1 µM"},
      {"molecule": "CC(/C=N/n1c(-c2cc(C)[nH]n2)n[nH]c1=S)=C\\c1ccccc1", "Potency": "inconclusive: 1.58 µM [inhibitor, full curve, poor fit]"},
      {"molecule": "COc1ccc2nc(/N=C(\\N)NC(=O)N3c4ccccc4Sc4ccccc43)nc(C)c2c1", "Potency": "inconclusive: 20 µM [inhibitor, partial curve, poor fit]"},
      {"molecule": "CC(C)c1ccc(NC2CCCN(C(=O)CSc3nncn3C)C2)cc1", "note": "(stereo unspecified)", "Potency": "inconclusive: 79.4 µM [inhibitor, single point]"}
    ]}
  ]
}
